Our source for the cytotoxicity call and growth inhibition call values is the antibiotic and cytotoxicity screens of Wong et al. (2023).

The test system of one assay is HSkMC. As to the kind of experiment: cytotoxicity call (relative viability < 0.9). Conditions: 10 µM.
Another assay has as its system HepG2. As to the kind of experiment: cytotoxicity call (relative viability < 0.9). The settings on record: 10 µM.
A further assay deals with S. aureus RN4220. As to the kind of experiment: growth inhibition call (relative growth <= 0.2). The settings on record: 50 µM.

SMILES strings stand for the structures. The list shows a part of the results.

Take `CCNC(=O)CC[C@H](N)C(=O)O`: the cytotoxicity call in the assay on HSkMC and in the assay on HepG2 was “inactive” each time. Moreover, in the assay on S. aureus RN4220, the growth inhibition call was “inactive”.

For `C[C@H](CO)N1C[C@H](C)[C@@H](CN(C)CC2CCCCC2)Oc2ccc(NC(=O)Cc3cn(C)c4ccccc34)cc2CC1=O`, the cytotoxicity call with HSkMC and in the assay on HepG2 was “inactive” each time. Besides, the growth inhibition call in the assay on S. aureus RN4220 is “inactive”.

On to `Cc1noc(C)c1S(=O)(=O)N(C)C[C@H]1OCCCC[C@H](C)Oc2ccc(NC(=O)Nc3cccc4ccccc34)cc2C(=O)N([C@H](C)CO)C[C@@H]1C`, for which the cytotoxicity call with HSkMC and in the assay on HepG2 was “inactive” each time. Further, in the assay with S. aureus RN4220, the growth inhibition call is “inactive”.

For `C[C@H](CO)N1C[C@H](C)[C@@H](CN(C)Cc2ccc3c(c2)OCO3)OCCCC[C@H](C)Oc2ccc(NS(=O)(=O)c3ccc(Cl)cc3)cc2C1=O`, the cytotoxicity call in the assay with HSkMC and in the assay on HepG2 was “inactive” each time. Also, in the assay with S. aureus RN4220, the growth inhibition call was “inactive”.

With `NCc1cccc2c1OCCCO2`, the cytotoxicity call with HSkMC and with HepG2 was “inactive” in each case. The growth inhibition call in the assay on S. aureus RN4220 was “inactive”.

For `COC(=O)[C@H](Cc1ccccc1)N1CC2=C[C@@H](C3CC3)n3c(=O)n(C)c(=O)n3[C@H]2[C@@H]1[C@@H](O)CCn1cc(-c2ccc(C(=O)NO)s2)nn1`, the cytotoxicity call in the assay on HSkMC and in the assay on HepG2 was “inactive” in each case. Moreover, the growth inhibition call in the assay with S. aureus RN4220 is “inactive”.

Regarding `O=C(O)[C@@H]1CC(=O)N(c2ccc3c(c2)OCO3)C1`, the cytotoxicity call with HSkMC and in the assay with HepG2 was “inactive” throughout. Further, the growth inhibition call with S. aureus RN4220 is “inactive”.

Consider `C[C@@H]1CCCCO[C@@H](CN(C)S(=O)(=O)c2cn(C)cn2)[C@H](C)CN([C@H](C)CO)C(=O)c2cc(NS(=O)(=O)c3cccs3)ccc2O1`, for which the cytotoxicity call with HSkMC and in the assay with HepG2 was “inactive” each time. Further, in the assay on S. aureus RN4220, the growth inhibition call is “inactive”.

With `COc1ccc(NC(=O)Nc2ccc3c(c2)C(=O)N([C@H](C)CO)C[C@H](C)[C@H](CN(C)S(=O)(=O)c2ccc(C)cc2)OCCCC[C@H](C)O3)cc1`, the cytotoxicity call with HSkMC and in the assay with HepG2 was “inactive” each time. Besides, the growth inhibition call with S. aureus RN4220 was “inactive”.

Take `C[C@@H]1CCCCO[C@H](CN(C)CC2CC2)[C@@H](C)CN([C@H](C)CO)C(=O)c2cc(NC(=O)CCC(F)(F)F)ccc2O1`: the cytotoxicity call in the assay with HSkMC and with HepG2 was “inactive” throughout. The growth inhibition call in the assay with S. aureus RN4220 was “inactive”.

As for `C[C@H](CO)N1C[C@H](C)[C@@H](CN(C)S(=O)(=O)c2cccs2)Oc2ccc(NS(=O)(=O)c3ccccc3)cc2CC1=O`, the cytotoxicity call with HSkMC and with HepG2 was “inactive” throughout. Further, the growth inhibition call in the assay on S. aureus RN4220 was “inactive”.

`Cc1noc(C)c1S(=O)(=O)Nc1ccc2c(c1)CC(=O)N([C@H](C)CO)C[C@H](C)[C@H](CN(C)C(=O)Nc1ccccc1)O2`: the cytotoxicity call in the assay with HSkMC and in the assay on HepG2 was “inactive” throughout. Moreover, in the assay with S. aureus RN4220, the growth inhibition call was “inactive”.

Consider `C/N=C1/S[C@@H](CC(N)=O)C(=O)N1C`, for which the cytotoxicity call in the assay with HSkMC and in the assay with HepG2 was “inactive” in each case. In addition, in the assay on S. aureus RN4220, the growth inhibition call was “inactive”.

For `C[C@@H]1CN([C@@H](C)CO)C(=O)c2cc(NC(=O)c3ccccc3)ccc2O[C@@H](C)CCCCO[C@@H]1CN(C)C(=O)NC1CCCCC1`, the cytotoxicity call with HSkMC and with HepG2 was “inactive” each time. In addition, the growth inhibition call with S. aureus RN4220 was “inactive”.

With `Cc1noc(C)c1NC(=O)Nc1ccc2c(c1)C(=O)N([C@@H](C)CO)C[C@H](C)[C@@H](CN(C)C(=O)Nc1ccc(F)cc1)OCCCC[C@H](C)O2`, the cytotoxicity call in the assay with HSkMC and in the assay with HepG2 was “inactive” throughout. In addition, the growth inhibition call in the assay on S. aureus RN4220 is “inactive”.

In the case of `C[C@@H]1CCCCO[C@H](CN(C)S(=O)(=O)c2cccs2)[C@@H](C)CN([C@@H](C)CO)C(=O)c2cc(NC(=O)Cc3ccccc3)ccc2O1`, the cytotoxicity call with HSkMC and with HepG2 was “inactive” throughout. The growth inhibition call in the assay with S. aureus RN4220 is “inactive”.

Turning to `C/C=C/C(=O)N1CCC=CC1=O`, the cytotoxicity call in the assay on HSkMC and with HepG2 was “inactive” in each case. The growth inhibition call with S. aureus RN4220 is “inactive”.

Regarding `C[C@@H]1CCCCO[C@@H](CN(C)Cc2ccncc2)[C@H](C)CN([C@@H](C)CO)C(=O)c2cc(NC(=O)Nc3ccc(F)cc3)ccc2O1`, the cytotoxicity call in the assay on HSkMC and in the assay on HepG2 was “inactive” in each case. For the same molecule, the growth inhibition call in the assay on S. aureus RN4220 is “inactive”.

For `O=C(NCc1ccccc1)C1=C[C@H](c2ccc(Br)cc2)C[C@H](OCc2ccc(CO)cc2)O1`, the cytotoxicity call in the assay with HSkMC and in the assay with HepG2 was “inactive” in each case. Besides, the growth inhibition call with S. aureus RN4220 was “inactive”.

As to `CC(Cc1ccc(O)c(O)c1)(NN)C(=O)O` (stereo unspecified), the cytotoxicity call with HSkMC was “inactive”. Moreover, the cytotoxicity call in the assay on HepG2 was “active”. Also, in the assay on S. aureus RN4220, the growth inhibition call was “inactive”.

As to `C[C@H]1CN([C@@H](C)CO)C(=O)c2cccc(NC(=O)C3CCOCC3)c2O[C@@H]1CN(C)Cc1ccc(C(=O)O)cc1`, the cytotoxicity call in the assay with HSkMC and with HepG2 was “inactive” throughout. In addition, in the assay on S. aureus RN4220, the growth inhibition call is “inactive”.

For `C[C@H](CO)N1C[C@H](C)[C@@H](CN(C)C(=O)Nc2cccc3ccccc23)OCCCC[C@H](C)Oc2ccc(NC(=O)Nc3cccc4ccccc34)cc2C1=O`, the cytotoxicity call in the assay on HSkMC and in the assay on HepG2 was “inactive” each time. Moreover, the growth inhibition call in the assay with S. aureus RN4220 is “inactive”.

Take `COc1ccc(CN(C)C[C@H]2Oc3c(NC(=O)c4ccc(-c5nccs5)cc4)cccc3C(=O)N([C@@H](C)CO)C[C@@H]2C)cc1`: the cytotoxicity call in the assay on HSkMC and with HepG2 was “inactive” each time. The growth inhibition call with S. aureus RN4220 is “inactive”.

`O=C(CCCCCCC(=O)Nc1ccccc1O)N/N=C/c1ccc(N(c2ccccc2)c2ccccc2)cc1`: the cytotoxicity call with HSkMC was “inactive”. The cytotoxicity call with HepG2 is “active”. Besides, the growth inhibition call in the assay with S. aureus RN4220 is “inactive”.

With `N#CC(=Cc1ccc(O)c(O)c1)C(N)=O`, the cytotoxicity call in the assay on HSkMC (human skeletal muscle cells) and with HepG2 was “inactive” throughout. In addition, the growth inhibition call with S. aureus RN4220 was “inactive”.

For `C[C@H]1CC[C@@H]2N(C1)C[C@@H]1[C@H]([C@@H](O)[C@H](O)[C@]3(O)[C@H]1C[C@@]14O[C@]5(O)[C@@H](C[C@@H](O)[C@@H]31)[C@]4(C)CC[C@@H]5O)[C@]2(C)O`, the cytotoxicity call with HSkMC and in the assay with HepG2 was “inactive” each time. Also, the growth inhibition call in the assay with S. aureus RN4220 was “inactive”.

As for `C[C@H](CO)N1C[C@H](C)[C@@H](CN(C)C(=O)C2CCOCC2)Oc2ncc(-c3cccc(C#N)c3)cc2C1=O`, the cytotoxicity call with HSkMC and with HepG2 was “inactive” throughout. In addition, in the assay on S. aureus RN4220, the growth inhibition call is “inactive”.
